The campaign covered roughly 150,000 compounds. About 540 (0.36%) showed an effect of 50% or more. The list shows a part of the results.

Broadly, the % Inhibition is the change of the read-out against control, counted positive when it falls.

This test has as its system Plasmodium falciparum. Nature of the test: Primary screen in NF54 nanoGlo assay, in single point, at 2uM, 72h; a lower Z score goes with more inhibition. The format is functional, Erythrocyte. The settings on record: timepoint 72 hour.
Turning to `O=C(c1cc(C2CC2)[nH]n1)N1CCCCC[C@@H]1CCO`, the “% Inhibition” value is listed as -2% and the Z score was determined as 0.29.

Take `C[C@H]1COC2(CCN(CC3(O)CCCCC3)CC2)O1`: the “% Inhibition” value is on record as -1% and the Z score worked out at 0.17.

For `Cc1ccc(C)c(S(=O)(=O)NC[C@H](Cc2ccccn2)C(=O)O)c1`, the “% Inhibition” value is on record as -4% and the Z score is 0.89.

As to `CCn1c(CCc2ccc(NC(=O)c3ccc4c(c3)OCO4)cc2)nc2ccccc21`, the “% Inhibition” value was -16% and the Z score is given as 1.63.

For `Cc1nc(C)c(S(=O)(=O)NC2CC(Cl)(Cl)C2)s1`, the “% Inhibition” value is -1% and the Z score is listed as 0.19.

Turning to `Cc1n[nH]c(C)c1NC(=O)c1cnn(C)c1`, the “% Inhibition” value was found to be 30% and the Z score is reported as -3.5.

Turning to `Cc1ccc(CNC(=O)[C@@H]2CCC(=O)NC(=O)N2)o1`, the “% Inhibition” value is recorded as -10% and the Z score was 1.96.

In the case of `Cc1cccc(CC(=O)N2CC3(C[C@H](N4CCCC4)CO3)C2)c1`, the “% Inhibition” value is listed as -9% and the Z score is 1.05.

In the case of `CC(C)NCCN1CCC[C@H](n2ccc(C(F)(F)F)n2)C1`, the “% Inhibition” value is -8% and the Z score is given as 1.05.

As to `OC1CC(c2cc(NC3CCCCCC3)ncn2)C1` (configuration not stated), the “% Inhibition” value is recorded as 3% and the Z score is on record as -0.55.

On to `CCC1=NO[C@H](C(=O)NCc2noc(-c3ccccc3)n2)C1`, for which the “% Inhibition” value was -14% and the Z score came to 1.84.

Regarding `O=C(Cn1ncc(=O)c2ccccc21)NC1CC1`, the “% Inhibition” value was 0% and the Z score amounted to 0.08.

For `CCCC(=O)Nc1ccc2c(c1)CN(C(=O)c1ccc(F)c(Cl)c1)[C@H](C(=O)N(C)C)C2`, the “% Inhibition” value was -7% and the Z score is recorded as 1.14.

As for `O=C([C@H]1OC[C@H]2CCC[C@H]21)N1Cc2cn[nH]c2C1`, the “% Inhibition” value is -3% and the Z score is recorded as 0.65.

On to `CCN(CC)[C@@H](CNC(=O)CCNC(=O)C1CCCC1)c1ccco1`, for which the “% Inhibition” value was 5% and the Z score was -0.82.

For the compound `Cc1ncsc1CN(C)C(=O)Nc1cc(C(C)C)on1`, the “% Inhibition” value is reported as 2% and the Z score is on record as -0.22.

For the compound `O=C(c1ccn(C(F)F)n1)N1CCO[C@H](C2CC2)C1`, the “% Inhibition” value is given as 1% and the Z score is -0.25.

For `O=C(c1cc(C2CC2)no1)N(CC(F)F)c1ccc(F)cc1`, the “% Inhibition” value is listed as -8% and the Z score worked out at 0.9.

Take `O=C(c1cc(-c2ccccc2)[nH]n1)N1CCCO[C@@H](Cn2cccn2)C1`: the “% Inhibition” value was -6% and the Z score was found to be 1.18.

`Cc1nc(CNC(=O)NCCC(=O)NC2CCCC2)sc1C`: the “% Inhibition” value is reported as 1% and the Z score was -0.1.

Turning to `O=C(C1CCCN1c1ccccc1)N1CCCC(c2nc(=O)[nH][nH]2)C1` (configuration not stated), the “% Inhibition” value is -10% and the Z score turned out to be 1.59.

Turning to `O=C1C[C@H](c2nc(-c3ccsc3)c[nH]2)CN1Cc1ccncc1`, the “% Inhibition” value was -14% and the Z score was found to be 1.59.

In the case of `CN(CCn1ccnc1)Cc1ccc([C@@H]2CCCO2)s1`, the “% Inhibition” value was -3% and the Z score was found to be 0.45.

On to `O=C([C@@H]1COc2cc(S(=O)(=O)N3CCCc4ccccc43)ccc2O1)N1CCOCC1`, for which the “% Inhibition” value worked out at 3% and the Z score is -0.33.

Regarding `Cc1ccnc(NC(=O)C2CC(=O)N(C3CCS(=O)(=O)C3)C2)c1` (configuration not stated), the “% Inhibition” value was -5% and the Z score was 0.96.

On to `CCCc1ccccc1NC(=O)N1C[C@H]2CC[C@@H](C1)[C@H]2N(C)C`, for which the “% Inhibition” value is on record as -11% and the Z score came out at 1.01.

Regarding `CCN1[C@H](C)CN(C(=O)C2CCCN(S(=O)(=O)CC)C2)C[C@@H]1C` (some centres not stated), the “% Inhibition” value is on record as -10% and the Z score is listed as 1.33.

Consider `Cc1noc(C)c1-c1n[nH]c2c1CN(c1nc3ccccc3o1)CC2`, for which the “% Inhibition” value is -2% and the Z score is recorded as 0.37.

With `COc1ncc(CN2CCC(N3CCc4ccccc4C3)CC2)cn1`, the “% Inhibition” value is listed as 14% and the Z score was -1.81.

Regarding `CCNC(=O)c1c(OC)cc(=O)n2c1CCCCC2`, the “% Inhibition” value is listed as 1% and the Z score was -0.13.

For `COCCC1(c2noc(C)n2)CCN(C(=O)c2cc(Cl)ccc2F)CC1`, the “% Inhibition” value is listed as -2% and the Z score worked out at 0.2.

In the case of `O=C(c1ccc(-c2ccccc2)[nH]c1=O)N1C[C@H]2CCC[C@@]2(CO)C1`, the “% Inhibition” value is -6% and the Z score worked out at 1.19.

As for `Cc1nc2c(C)cccn2c1[C@H](Nc1ccc(Cl)cc1)c1ccccc1`, the “% Inhibition” value is on record as -10% and the Z score turned out to be 1.49.

As to `COCCN(C)CC(=O)N1CCC(C)(C#N)CC1`, the “% Inhibition” value is -10% and the Z score worked out at 1.83.

As to `Cc1ccc(C(=O)Nc2ccccc2)c(C2CCN(C(=O)c3ccc(F)cc3)CC2)n1`, the “% Inhibition” value is reported as -17% and the Z score was 3.2.

Consider `CN(C(=O)c1cncc(Br)c1)C1(C#N)CCC1`, for which the “% Inhibition” value is -7% and the Z score was 1.2.

`CCc1cn[nH]c1[C@H]1CCCN(C(=O)CCn2nc(C)c(C(C)=O)c2C)C1`: the “% Inhibition” value is listed as 10% and the Z score is on record as -1.21.

Consider `CCCC(C)S(=O)(=O)NC(=O)C(C)c1ccccc1` (configuration not stated), for which the “% Inhibition” value was 3% and the Z score is on record as -0.35.

Turning to `CC1CN(C(CNCc2nccn2C)c2cccs2)CCO1` (configuration not stated), the “% Inhibition” value is -8% and the Z score stood at 0.86.

For the compound `C[C@H](NC(=O)N1CCCC(c2ccc(F)c(F)c2)C1)c1ncccc1F` (some centres not stated), the “% Inhibition” value is recorded as -12% and the Z score worked out at 1.96.

As to `COC(=O)c1nc(NC(=O)c2ccncc2)sc1-c1ccccc1OC`, the “% Inhibition” value is recorded as -3% and the Z score turned out to be 0.45.

As to `COC[C@H](NC(=O)c1ccc(C)s1)c1ccnn1C`, the “% Inhibition” value is -9% and the Z score came out at 1.61.

`Cc1ccn2ncnc2c1NC(=O)COC[C@H]1CCCO1`: the “% Inhibition” value is on record as -6% and the Z score was 1.04.

As to `CN(C)c1ccc(CNS(=O)(=O)c2ccnn2C)cc1`, the “% Inhibition” value was -5% and the Z score is given as 0.67.

Take `O=C(NCCC1CCCCC1)N1CCCCC1`: the “% Inhibition” value was 14% and the Z score is listed as -1.78.

With `O=C(NCc1cccnc1N1CCOCC1)c1ccco1`, the “% Inhibition” value was -9% and the Z score worked out at 1.27.

Consider `CCOc1ncccc1CNc1nc(C2CC2)ns1`, for which the “% Inhibition” value is on record as -8% and the Z score turned out to be 1.26.

Take `CC1(C)COC[C@@H]1NC(=O)c1ccc(CN2CCNC(=O)C2)cc1`: the “% Inhibition” value was 2% and the Z score is given as -0.39.

On to `CCn1nccc1CNc1ccc(-c2nncn2-c2ccccc2)cn1`, for which the “% Inhibition” value was -19% and the Z score is 2.34.

For `C[C@@H](CN1CCOCC1)NC(=O)c1cc(Cl)c(Cl)n1C`, the “% Inhibition” value is given as -2% and the Z score is 0.32.

Take `CC(C)=CC[C@]1(C(=O)O)CCCN(Cc2nnc(C)s2)C1`: the “% Inhibition” value amounted to 4% and the Z score is -0.72.

Regarding `COc1ccc(N2CCN(Cc3ccoc3)CC2)cc1`, the “% Inhibition” value is recorded as -11% and the Z score is 2.12.

As to `CCc1noc([C@H](C)NC(=O)c2cc(Cn3ccnc3C(C)C)[nH]n2)n1`, the “% Inhibition” value is -2% and the Z score is given as 0.4.

Take `CCN1CC2(CCN(Cc3cccnc3)CC2)C[C@@H](c2ccccc2)C1=O`: the “% Inhibition” value is 4% and the Z score is reported as -0.87.

Take `Cc1cc([C@@H](O)CNC(=O)c2ccc(Br)o2)c(C)o1`: the “% Inhibition” value is recorded as -7% and the Z score was determined as 1.39.

Regarding `CC1(F)CCCN(CC2CCCOC2)C1` (configuration not stated), the “% Inhibition” value was -4% and the Z score is 0.88.

Values taken from ChEMBL document CHEMBL4888484, “Replenishing the malaria drug discovery pipeline: Screening and hit evaluation of the MMV Hit Generation Library 1 (HGL1) against asexual blood stage Plasmodium falciparum ,using a nano luciferase reporter read-out” (2022).
